The full ranking holds about 16,000 sequences; the median of “Z-score” is about -0.37, and the highest 2% start at about 3.1. The list shows a part of the results.
Test system: RBM10 RRM1-ZnF-RRM2 (GST-tagged construct)
Assay: RNAcompete 7-mer binding Z-score; higher = stronger binding preference
Method: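 RNAcompete: 20 pmol GST-tagged RBM10 RNA-binding constructs were incubated with a designed RNA pool of about 241,000 sequences up to 41 nt (1.5 nmol) on glutathione beads for 30 min at 4 °C and washed. Bound RNAs were identified by microarray hybridisation. Each RNA 7-mer is scored by a one-sided Z-score of its enrichment, computed over probes that contain the 7-mer within longer pool sequences.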

Sequence	RNAcompete 7-mer binding Z-score
ACUCUCA	-0.832
UUUCGCC	-0.945
AAUGGUU	2.34
UCUCCAG	-0.697
UCAGAAG	0.286
GACCUAC	-0.905
AUGCCGU	-0.639
AGCGAGG	3.06
UGGCCCG	-0.253
CAAUUUU	-1.01
AUGAGAC	-0.147
ACAACCA	-0.304
GUCUAUU	-0.595
CUUUGGC	-0.879
GGGAGAU	2.35
UAAGUAG	0.683
GUUUGAA	-0.431
CGCUGCG	-0.227
AAGUCCG	-0.632
UAUUUAG	-0.26
UCCUUGC	-0.77
AUAUUCG	-0.417
CUCGUAA	-0.726
UGCUUGC	-0.73

Sequence	RNAcompete 7-mer binding Z-score
UUGGUGU	0.909
UGCGUAC	-0.067
UGACUGC	-0.602
ACCGAAG	-0.439
CCGCAGC	-0.621
CUAACUU	-0.89
CUUCUUG	-0.905
GAAGUUU	-0.147
GUCUGGC	-0.366
UUCGCCC	-0.883
GAUUCAU	-0.446
GUGCAAU	0.399
GUCUGUG	-0.125
UCAGUAG	0.661
GCGUGCA	0.213
UGUCGUC	-0.373
ACCUUCU	-0.981
UAGAGAC	0.192
ACUCCCU	-0.868
ACGAGGC	0.742
UUUGUAG	-0.369
ACCAUCA	-0.577
CGUACGA	-0.395
UGGGCAA	2.37

Sequence	RNAcompete 7-mer binding Z-score
CACGGCU	-0.468
AUGAACU	-0.282
UUUGCAG	-0.362
GGAACCG	1.24
UCCAUAA	-0.741
UAGACAC	-0.154
AAUAUUU	-0.77
UUUCCAU	-0.551
AGUCGAU	-0.0707
GGACCUC	-0.0816
AGCCGGG	0.905
CACAACG	-0.395
GGCUUUG	-0.191
CGACAUG	0.37
CCUACAG	-0.752
CAGCAGC	-0.246
GGGAAAU	2.87
CUUCGCU	-0.905
ACUGGCC	-0.621
CGCUCCC	-0.533
CCCCGCG	-0.504
GCGACAA	0.21
UCGCAAC	-0.686
GAAGACA	0.352

Sequence	RNAcompete 7-mer binding Z-score
GACUUUU	-0.697
AACCGUG	-0.00148
CCCUUAU	-0.814
AGAAAUC	-0.511
AGUGUUC	-0.559
AGUCCUG	-0.497
GCAUCGU	-0.282
AUUAAGG	1.26
UGUAGGG	3.34
UGUUGUC	-0.752
GAAUAUG	0.749
CAGAGUC	-0.165
AACUCCU	-0.821
GCAAGGU	2.17
AGUAAUC	-0.3
AGGACCA	0.0349
UUUACCU	-0.821
GACGCGA	-0.235
GUUUUCA	-0.333
UUUACCC	-0.897
GACCGCG	-0.533
GAACGCA	-0.147
CGACAUU	-0.431
GUUAAUA	-0.249

Sequence	RNAcompete 7-mer binding Z-score
AUGUUCG	-0.446
UAGAGCC	-0.388
GCCUGCG	-0.5
CGAUGCC	-0.544
UACGAAA	-0.151
GAACAGC	0.0204
CGCCAGC	-0.439
CCAGGGG	1.43
UCGCUUA	-0.763
AGGCACG	0.202
CCCUGAU	-0.744
GCCGACU	-0.887
CUGCCGG	-0.202
GCGAUAA	0.374
GUGAAUG	1.1
CUGCGGC	-0.107
UGUGUGC	-0.118
CCACGUC	-0.57
ACAUGGA	1.76
CGGAGGG	2.92
AGAACUC	-0.785
AUCGGUA	0.581
CGCUCCA	-0.653
CCGGAUU	-0.435

Sequence	RNAcompete 7-mer binding Z-score
CGGGCAG	1.99
UCGCGAU	-0.726
GUUAUUG	0.195
UGACCGC	-0.544
CUACCGG	-0.57
AAAGAUA	0.0277
ACACUGC	-0.737
ACACGGG	1.91
GUAGGGC	2.85
GUGUCAA	0.0604
CGGGUCA	1.51
CCUAAUU	-0.828
CCGGGGC	0.942
GUUGAGA	0.64
UUCCUUC	-0.763
GUCACGG	0.599
GAUCCUG	-0.85
UUCUUCU	-0.788
AAGACUA	-0.198
CCUAGGG	0.869
AUUCAUG	-0.307
GAAGCAA	0.341
AUAGCAU	-0.366
UAAGGUA	1.39

Sequence	RNAcompete 7-mer binding Z-score
AGCUGGC	0.0604
CUCUACA	-0.843
CGAGUAA	0.505
CUUGCUU	-0.948
CCGGGGA	1.12
AUAAGAA	0.177
GCUGGAU	0.548
GAUACCG	-0.311
AGGGCCC	-0.238
AUGAUCA	-0.326
AUGCCUU	-0.872
GUUCCGG	0.283
CCCUAAC	-0.781
CUGUGUU	-0.89
ACAUUGU	-0.428
CAAACCG	-0.384
UAUGUUG	-0.449
CCACAAU	-0.759
AAUUGCC	-0.755
GCCCCUA	-0.708
UCUAGCG	-0.624
GCCAGUU	-0.752
CCCGCAG	-0.511
UGCACUU	-0.744

Sequence	RNAcompete 7-mer binding Z-score
GGGUGAG	4.12
CAUGAUA	-0.122
CGACCUA	-0.817
UUUAAUC	-0.737
ACCGGUG	0.607
CCGCUAG	-0.588
CGUUUAA	-0.759
AAGGGUU	3.94
CUCCGGU	-0.584
GUGCUGC	-0.227
UCUGAAA	-0.562
AUCUCUA	-0.814
GUAAUGU	0.545
UUAGGAU	0.996
CACCCCU	-0.562
ACAAAGA	-0.18
CAGAGAG	0.938
AUACAAU	-0.275
CGCUCGG	-0.158
UGUGGCG	1.34
UCCCUUC	-0.737
CUCAGAU	-0.632
UAAACUC	-0.73
CUAGGGA	1.6

Sequence	RNAcompete 7-mer binding Z-score
AGGAUAA	1.21
UCAGCCU	-0.843
GGUCGCG	0.687
GUUAUCU	-0.395
AGUCCUU	-0.806
UGCUGUU	-0.777
CGCACUA	-0.65
CCGAUAC	-0.533
UGCAGCG	0.53
CGCAAAA	-0.391
CAUAAUC	-0.715
CCAGGCC	-0.679
GGGGUUA	3.07
CGUGUCC	-0.704
UAGGGUC	2.16
CUGUGGA	0.701
UCGGGAA	1.4
CCGCAAC	-0.617
UCGCUAA	-0.573
CAUGGGG	2.51
UCCCGGA	-0.38
GAAAUCC	-0.61
GAAUUCU	-0.493
GGGUACG	2.9

Sequence	RNAcompete 7-mer binding Z-score
ACCAGAG	0.355
GGACCCU	-0.46
CCCGAUC	-0.73
AGGAUCC	-0.238
UAGCAGA	0.348
ACGGGAA	2.76
AACAGGA	2.03
CGCCUAA	-0.908
GCGGCGU	1.18
ACCCGUU	-0.916
CUCCCUA	-0.701
UAGCUUA	-0.526
UAUUGGA	0.523
CCGUGAA	-0.635
CGGUAAC	0.232
AACAAUA	0.13
GUCAAUU	-0.602
CGGGGUC	1.9

From the supplement of paper PMC5499739
